{
  "source": "paper PMC4336329",
  "about": "(PLoS ONE, 2015)",
  "note": "About 2,200 (0.71%) of roughly 310,000 compounds showed an effect of 50% or more. Effects have a minus sign here. This is one part of the list.",
  "data": [
    {"biological_target": "human ether-à-go-go-related gene (hERG) potassium channel (human, UniProt Q12809)", "sequence (Q12809 whole entry, looked up)": "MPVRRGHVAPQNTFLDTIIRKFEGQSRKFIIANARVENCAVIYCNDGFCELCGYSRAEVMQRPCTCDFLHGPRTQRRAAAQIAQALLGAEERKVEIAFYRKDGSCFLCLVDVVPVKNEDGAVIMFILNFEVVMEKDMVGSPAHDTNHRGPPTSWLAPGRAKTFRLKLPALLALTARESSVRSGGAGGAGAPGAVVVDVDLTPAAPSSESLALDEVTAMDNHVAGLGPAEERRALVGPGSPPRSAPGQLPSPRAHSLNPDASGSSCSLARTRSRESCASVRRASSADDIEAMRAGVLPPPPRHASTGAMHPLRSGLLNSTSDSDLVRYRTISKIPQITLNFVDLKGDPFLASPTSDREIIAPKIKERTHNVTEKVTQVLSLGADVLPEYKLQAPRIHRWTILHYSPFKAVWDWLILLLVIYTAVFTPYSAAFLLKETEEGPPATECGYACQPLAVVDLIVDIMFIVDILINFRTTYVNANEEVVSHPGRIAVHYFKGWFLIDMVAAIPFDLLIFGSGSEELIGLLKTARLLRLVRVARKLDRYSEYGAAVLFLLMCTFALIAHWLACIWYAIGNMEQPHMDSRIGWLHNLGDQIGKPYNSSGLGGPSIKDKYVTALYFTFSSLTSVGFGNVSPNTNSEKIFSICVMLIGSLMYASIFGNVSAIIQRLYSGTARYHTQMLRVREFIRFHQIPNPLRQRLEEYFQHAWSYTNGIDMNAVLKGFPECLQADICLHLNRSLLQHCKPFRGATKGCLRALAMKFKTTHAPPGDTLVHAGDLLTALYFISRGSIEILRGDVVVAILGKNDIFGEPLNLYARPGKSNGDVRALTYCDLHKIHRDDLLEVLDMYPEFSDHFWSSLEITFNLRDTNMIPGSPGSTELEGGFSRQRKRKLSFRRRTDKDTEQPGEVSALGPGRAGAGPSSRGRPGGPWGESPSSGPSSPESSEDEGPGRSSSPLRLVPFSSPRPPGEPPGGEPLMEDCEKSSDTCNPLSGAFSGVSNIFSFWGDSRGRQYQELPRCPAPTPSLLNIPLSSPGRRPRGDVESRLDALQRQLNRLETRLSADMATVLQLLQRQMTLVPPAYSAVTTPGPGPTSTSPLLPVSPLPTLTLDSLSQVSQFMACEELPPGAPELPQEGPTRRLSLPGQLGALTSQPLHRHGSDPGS", "test": "primary screen, population patch clamp on CHO cells stably expressing hERG", "units": {"hERG current change (%, negative = inhibition) at 1uM": "%"}, "values": [
      {"smiles": "CCc1c(C)nc2cc(-c3ccc(OC)c(OC)c3)nn2c1N1CCC(C)CC1", "hERG current change (%, negative = inhibition) at 1uM": 19.8},
      {"smiles": "NC(=O)c1c(NC(=O)COC(=O)c2ccc(S(=O)(=O)Nc3ccccc3)cc2)sc2c1CCCC2", "hERG current change (%, negative = inhibition) at 1uM": 12.2},
      {"smiles": "COc1ccccc1/C=C1\\SC(=O)N(CC(=O)NCCCn2ccnc2)C1=O", "hERG current change (%, negative = inhibition) at 1uM": 9.66},
      {"smiles": "CC(C)C[C@H](NC(=O)OC(C)(C)C)C(=O)N/N=C/C1=Cc2ccccc2OC1C", "note": "(some centres unmarked)", "hERG current change (%, negative = inhibition) at 1uM": 4.35},
      {"smiles": "CCOc1ccccc1C1C(C(N)=O)=C(C)Nc2nc(CCCO)nn21", "note": "(centres unmarked)", "hERG current change (%, negative = inhibition) at 1uM": 13.6},
      {"smiles": "O=C(CSc1nnc(CNc2ccc(F)cc2)o1)N1CCCc2ccccc21", "hERG current change (%, negative = inhibition) at 1uM": 11.3},
      {"smiles": "COc1ccc(CN2C(=O)C(C)N(C(=O)c3c(F)cccc3F)c3ccccc32)cc1", "note": "(centres unmarked)", "hERG current change (%, negative = inhibition) at 1uM": 22.6},
      {"smiles": "O=C(CCC(=O)Nc1ccccc1)NNC(=O)c1ccco1", "hERG current change (%, negative = inhibition) at 1uM": 13.6},
      {"smiles": "N#CC1=C2SCN(c3ccccc3)CN2C(=O)CC1c1cccs1", "note": "(centres unmarked)", "hERG current change (%, negative = inhibition) at 1uM": 10.1},
      {"smiles": "CCCCC(=O)Nc1nc2ccc3nc(C)sc3c2s1", "hERG current change (%, negative = inhibition) at 1uM": 14.3},
      {"smiles": "Cc1noc(C)c1CN1C(=O)c2ccccc2C1=O", "hERG current change (%, negative = inhibition) at 1uM": 14.5},
      {"smiles": "O=C(Nc1ccccc1Cc1ccccc1)C1CC(=O)N(c2ccc3c(c2)OCCO3)C1", "note": "(centres unmarked)", "hERG current change (%, negative = inhibition) at 1uM": 12.9},
      {"smiles": "COc1cc(OC)c2c(-c3ccccc3)cc(=O)oc2c1", "hERG current change (%, negative = inhibition) at 1uM": 16.7},
      {"smiles": "CCN1CCC(=NNC(=O)c2ccc(C)c([N+](=O)[O-])c2)CC1", "hERG current change (%, negative = inhibition) at 1uM": 8.75},
      {"smiles": "CCC1(C)NC(=O)N(/N=C/c2ccc(C)s2)C1=O", "note": "(centres unmarked)", "hERG current change (%, negative = inhibition) at 1uM": 15.8},
      {"smiles": "CCc1nc(N)nc2c1C(=O)CC(C)(C)C2", "hERG current change (%, negative = inhibition) at 1uM": 15.8},
      {"smiles": "CCN(CC)CCNC(=O)c1c(C)oc2cc(Br)c(OC)cc12", "hERG current change (%, negative = inhibition) at 1uM": 5.82},
      {"smiles": "CCC(C)[C@H](NC(=O)OC(C)(C)C)c1nnc(SCc2c(C)[nH]c(=O)[nH]c2=O)o1", "note": "(some centres unmarked)", "hERG current change (%, negative = inhibition) at 1uM": 11.1},
      {"smiles": "CC(C)N1CCN(Cc2ccc(C#CC(C)(C)O)s2)CC1CCO", "note": "(centres unmarked)", "hERG current change (%, negative = inhibition) at 1uM": 10.9},
      {"smiles": "Cc1cc2cc(NC(=O)c3ccco3)ccc2[nH]1", "hERG current change (%, negative = inhibition) at 1uM": 1.84},
      {"smiles": "Cc1cc(OC(=O)c2cc(F)c(F)cc2Cl)nc(C)n1", "hERG current change (%, negative = inhibition) at 1uM": 21.8},
      {"smiles": "Cc1ccc(N(CC(=O)NC2CCCC2)C(=O)CCC(=O)Nc2nccs2)c(C)c1", "hERG current change (%, negative = inhibition) at 1uM": 9.35},
      {"smiles": "Cc1ccccc1C(=O)OC1CCCN(C)C1.Cl", "note": "(centres unmarked)", "hERG current change (%, negative = inhibition) at 1uM": 16.1},
      {"smiles": "O=C(CCC1CCCN(C(=O)c2ccco2)C1)NCc1ccccc1F", "note": "(centres unmarked)", "hERG current change (%, negative = inhibition) at 1uM": 1.73},
      {"smiles": "CN1C(=O)S/C(=C/c2ccccc2OCc2ccc(C(=O)O)cc2)C1=O", "hERG current change (%, negative = inhibition) at 1uM": 8.3},
      {"smiles": "COc1ccc(N2CCN(C(=O)COC(=O)CNC(=O)c3ccccc3)CC2)cc1", "hERG current change (%, negative = inhibition) at 1uM": 12.9},
      {"smiles": "CCN(C(=O)Nc1cccc(Cl)c1)c1ccccc1", "hERG current change (%, negative = inhibition) at 1uM": 15},
      {"smiles": "O=C(Cc1ccc(S(=O)(=O)N2CCCCC2)cc1)NCc1ccc(Cl)cc1", "hERG current change (%, negative = inhibition) at 1uM": -16.8},
      {"smiles": "Cc1nc(CC(C)C)cc(C(=O)N2CCCC(Nc3ccc(C)c(C)c3)C2)n1", "note": "(centres unmarked)", "hERG current change (%, negative = inhibition) at 1uM": 6.23},
      {"smiles": "COc1cc(CN(C)Cc2cc(=O)n3ccsc3n2)ccc1OC(F)F", "hERG current change (%, negative = inhibition) at 1uM": -6.1},
      {"smiles": "O=C(Cn1nc(C(F)F)cc1C(F)F)NNC(=S)Nc1ccc(F)cc1", "hERG current change (%, negative = inhibition) at 1uM": 8.48},
      {"smiles": "Cc1ccc(NC(=O)COC(=O)CCc2ccc(S(=O)(=O)N3CCOCC3)cc2)c(C)c1", "hERG current change (%, negative = inhibition) at 1uM": -8.88},
      {"smiles": "CCc1cc(=O)oc2c3c(cc(OCC(=O)N[C@H](C(=O)O)[C@H](C)CC)c12)OC(C)(C)CC3", "hERG current change (%, negative = inhibition) at 1uM": 12.2},
      {"smiles": "CCOC(=O)c1c(-c2ccccc2)csc1NC(=O)/C(C#N)=C/c1ccc(OC)c(OC)c1", "hERG current change (%, negative = inhibition) at 1uM": 9.35},
      {"smiles": "Cc1ccc(S(=O)(=O)N(C)Cc2ccc(-c3nnco3)cc2)cc1", "hERG current change (%, negative = inhibition) at 1uM": 15.1},
      {"smiles": "C(CCc1nn[nH]n1)CCc1nn[nH]n1", "hERG current change (%, negative = inhibition) at 1uM": 14},
      {"smiles": "O=S(=O)(c1ccccc1)N1CCCN(S(=O)(=O)c2ccccc2)CC1", "hERG current change (%, negative = inhibition) at 1uM": 17.5},
      {"smiles": "CCOc1cc(C(=S)N2CCN(C)CC2)ccc1OCC(=O)N1CCCC1", "hERG current change (%, negative = inhibition) at 1uM": 17.1},
      {"smiles": "COC(=O)c1sc(NC(=O)CSc2nc3cccnc3n2C2CCCCC2)nc1C", "hERG current change (%, negative = inhibition) at 1uM": 11.2},
      {"smiles": "Cn1c(N)c(C(=O)COC(=O)C2=COCCO2)c(=O)n(C)c1=O", "hERG current change (%, negative = inhibition) at 1uM": 5.69},
      {"smiles": "COc1ccc(C(CNCC(O)COc2c(C)ccc(C)c2C)N(C)C)cc1", "note": "(centres unmarked)", "hERG current change (%, negative = inhibition) at 1uM": 6.74},
      {"smiles": "CCOC(=O)C(Cc1ccccc1)NC(=O)CCCC(=O)c1ccccc1", "note": "(centres unmarked)", "hERG current change (%, negative = inhibition) at 1uM": 9.09},
      {"smiles": "COc1cccc(NC(=O)COC(=O)CNS(=O)(=O)c2c(F)cccc2F)c1", "hERG current change (%, negative = inhibition) at 1uM": 8.91},
      {"smiles": "O=C(NCCSc1ncc(-c2ccc(F)cc2)[nH]1)c1ccco1", "hERG current change (%, negative = inhibition) at 1uM": -13.8}
    ]}
  ]
}
